The text below walks through data of ChEMBL document CHEMBL4888484, “Replenishing the malaria drug discovery pipeline: Screening and hit evaluation of the MMV Hit Generation Library 1 (HGL1) against asexual blood stage Plasmodium falciparum ,using a nano luciferase reporter read-out” (2022).

In all, about 150,000 compounds went through this assay and about 540 (0.36%) showed an effect of 50% or more. This is one part of the list.

In this experiment the test system is Plasmodium falciparum. Kind of experiment: Primary screen in NF54 nanoGlo assay, in single point, at 2uM, 72h; a lower Z score goes with more inhibition. Format: functional, Erythrocyte. The settings on record: timepoint 72 hour.
`O=C(Cc1c(F)cccc1F)Nc1ncc(C2CCNCC2)s1`: the “% Inhibition” value amounted to 4% and the Z score is -0.73.

Regarding `N#Cc1ccc(S(=O)(=O)N2CCCC3CC32)c(NCCO)c1` (stereo unspecified), the “% Inhibition” value is reported as -7% and the Z score turned out to be 1.14.

For the compound `Cc1cc(C#N)cc(N2CC[C@@H](O)C2)n1`, the “% Inhibition” value is -3% and the Z score stood at 0.47.

With `O=C(COc1ccc(Cl)cc1S(=O)(=O)Nc1cccc(C2OCCCO2)c1)N1CCOCC1`, the “% Inhibition” value is -13% and the Z score is on record as 2.03.

As for `CC[C@@H](CO)NC(=O)Nc1cc(C)on1`, the “% Inhibition” value was -7% and the Z score is recorded as 0.93.

On to `COc1ccccc1C(=O)N1CCN(Cc2cc(=O)c3c(C)cc(C)cc3[nH]2)CC1`, for which the “% Inhibition” value is given as -9% and the Z score came out at 1.28.

As for `COc1ccc(CCCN(C)C(C)C(C)O)cc1` (stereo unspecified), the “% Inhibition” value is -4% and the Z score stood at 0.49.

With `O=C(c1ccccn1)N1C[C@H]2CC[C@@H](C1)N(C(=O)Cc1ccccc1F)C2`, the “% Inhibition” value was -5% and the Z score was 0.95.

Take `c1cnn(-c2cc(N3CCC(n4cc(-c5ccsc5)nn4)CC3)ncn2)c1`: the “% Inhibition” value was 2% and the Z score is listed as -0.4.

Regarding `CCn1c(-c2cccnc2)nc2cc(NC(=O)COC)cc(C(=O)NCc3ccccc3OC)c21`, the “% Inhibition” value was determined as 12% and the Z score is -1.58.

Turning to `COCCc1nc2c(c(N3CCN(c4ccccc4OC)CC3)n1)CCOCC2`, the “% Inhibition” value is -2% and the Z score was 0.17.

Turning to `CC1CCCCN1C(=O)NC1CCOc2ccccc21` (stereo unspecified), the “% Inhibition” value stood at 1% and the Z score is given as -0.26.

Turning to `O=c1[nH]c2ccccc2c(-c2ccccc2)c1Oc1cccc(F)c1`, the “% Inhibition” value is listed as -16% and the Z score was 1.36.

With `O=C(Nc1cccc(Cl)c1)Nc1nnc2cccc(Cl)n12`, the “% Inhibition” value is given as -18% and the Z score came to 2.03.

Regarding `Cc1cc(N)n(CC(=O)NCc2cc(COc3ccccc3)cs2)n1`, the “% Inhibition” value was 2% and the Z score is recorded as -0.3.

On to `Cc1noc(C)c1CN1C(=O)[C@@H]2CC[C@H]1CN(C(=O)CCC(=O)N(C)C)C2`, for which the “% Inhibition” value is -2% and the Z score is reported as 0.29.

On to `N#Cc1ccnc(O[C@H]2CCN(C(=O)CN3CCN(c4ccccc4)C3=O)C2)c1`, for which the “% Inhibition” value is reported as -16% and the Z score was 3.13.

As to `O=C([C@@H]1CCC(=O)N1S(=O)(=O)c1ccccc1)N1CCN(Cc2ccccc2)CC1`, the “% Inhibition” value was -15% and the Z score was 2.1.

In the case of `CC[C@@H](CO)NCc1ccc(OCc2ccccc2)c(OCc2ccccc2)c1`, the “% Inhibition” value was determined as 4% and the Z score is reported as -0.53.

With `CC1(C)C(c2ccccc2)=NC(c2ccc(F)cc2)=[N+]1[O-]`, the “% Inhibition” value is recorded as -8% and the Z score amounted to 1.57.

For the compound `CCN(C(=O)Nc1nnc(-c2cc3ccccc3o2)s1)C1CC1`, the “% Inhibition” value is on record as -9% and the Z score came out at 1.46.

Regarding `Cc1nnc(C(C)NC2CCC[C@@H]3C[C@H]23)[nH]1` (stereo partly specified), the “% Inhibition” value is reported as -10% and the Z score is 1.36.

Regarding `Cc1nnc(CCNC(=O)CNC(=O)N(C)C)s1`, the “% Inhibition” value is listed as 1% and the Z score is given as -0.08.

Consider `Cc1noc(C2CN(C(=O)c3ccnc(-c4ccco4)c3)C2)n1`, for which the “% Inhibition” value was -15% and the Z score is listed as 1.92.

As for `CCCn1cc(CN(C)[C@H]2CCN(S(C)(=O)=O)C2)cn1`, the “% Inhibition” value was -10% and the Z score is on record as 1.17.

As for `Cc1ncn(Cc2ccncc2F)c1C`, the “% Inhibition” value is 4% and the Z score was -0.48.

With `CCOCc1ccccc1CNC(=O)N[C@@H](C)CC`, the “% Inhibition” value is -11% and the Z score came to 1.07.

For the compound `CC(=O)c1ccc(NC(=O)c2cnc(-c3ccc4c(c3)CCO4)s2)cc1`, the “% Inhibition” value was 31% and the Z score is listed as -4.06.

On to `CCc1ccsc1CNC(=O)CN(C)C(C)C`, for which the “% Inhibition” value was -7% and the Z score is 1.

In the case of `O=C(Nc1c(C(=O)c2ccccc2)oc2ccccc12)c1cc(-c2ccccc2)on1`, the “% Inhibition” value is given as -4% and the Z score is on record as 0.62.

Consider `CCN1CCN(CCCNC(=O)CCCc2nnc(C(=O)Nc3cccc(F)c3)s2)CC1`, for which the “% Inhibition” value was -6% and the Z score stood at 1.04.

In the case of `Cn1cc(C(=O)N2CCC[C@H]2C(F)(F)F)nn1`, the “% Inhibition” value was -4% and the Z score was found to be 0.71.

Take `CNC(=O)[C@@H]1CN(C(=O)Cc2c[nH]c3ccccc23)C[C@H]1c1nc(COC)no1`: the “% Inhibition” value worked out at 1% and the Z score is -0.1.

For `Cn1cc(CCC(=O)N2CCCCc3cc(Cl)ccc32)cn1`, the “% Inhibition” value was -17% and the Z score was determined as 2.15.

Consider `CC1=C(C(=O)N2CCN(c3cccc(Cl)c3)CC2)OCCO1`, for which the “% Inhibition” value was determined as 12% and the Z score is -1.64.

Take `C#CCN(C(=O)C[C@H]1C(=O)NCCN1Cc1cccnc1)C1CCCCC1`: the “% Inhibition” value is given as -15% and the Z score is 2.16.

For the compound `CCc1nc(Cn2ccnc2-c2ccc3ccccc3n2)no1`, the “% Inhibition” value is on record as -7% and the Z score is listed as 0.69.

For the compound `CCCOc1ccccc1CN1CCN(C)[C@]2(CCC(=O)N(C)CC2)C1`, the “% Inhibition” value is -30% and the Z score is reported as 2.69.

With `COc1cc(-c2ccc(C(=O)NC(C)(C)CO)cc2)nc(N)n1`, the “% Inhibition” value is on record as -25% and the Z score is on record as 2.52.

Turning to `O=C(c1[nH]nc(C2CC2)c1Br)N1CCOCC1`, the “% Inhibition” value is listed as -7% and the Z score was found to be 0.91.

Regarding `CN(C(=O)CN1C[C@H]2CN(C3CCCCC3)C[C@@]2(C(=O)O)C1)c1ccccc1`, the “% Inhibition” value is 7% and the Z score is -0.89.

As for `O=C(N[C@H]1CCc2n[nH]c(=O)cc2C1)c1ccc2nsnc2c1`, the “% Inhibition” value is reported as -7% and the Z score turned out to be 1.17.

With `COCC1(CN2C(=O)CNC2=O)CCCC1`, the “% Inhibition” value was determined as 2% and the Z score was -0.46.

As a reminder, the % Inhibition is the drop in the measured response relative to a control, in per cent.
